This sample is rich in variants without activity.
B1: TPR 5TU (parent)
chain: GGAUCUUCUCGAUCUAACAAAAAAGACAAAUCUGCCACAAAGCUUGAGAGCAUCUUCGGAUGCAGAGGCGGCAGCCUUCGGUGGCGCGAUAGCGCCAACGUUCUCAACUAUGACACGCAAAACGCGUGCUCCGUUGAAUGGAGUUUAUCAUG

Variants of: B1
Experiment: polymerase ribozyme fitness, log enrichment relative to wild type (log ratio); higher = more active; in vitro selection for triplet polymerase activity
Method in brief: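 For each subunit of a heterodimeric triplet polymerase ribozyme, a mutant library was built by PCR and transcribed, then taken through a single in vitro selection round in triplicate. Selection involved annealing to a biotinylated primer, the partner subunit and triplets, incubation frozen at −7 °C, gel excision of extended constructs, capture on streptavidin beads and RT-PCR. Genotypes were retained after Illumina sequencing of inputs and outputs only with ≥10 input reads and ≥1 read in each output. Fitness is defined as the logarithm of a genotype's enrichment relative to wild-type enrichment, using inverse-variance-weighted averages across replicates, with the logarithm taken to base 2.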

Variant	polymerase ribozyme fitness (log ratio)
C8U A28C C57U C76G G83U G88U C96A A122C A137G C149U	≤ -4.2
C8A G84U	≤ -4.2
C8A C54U C87G A91G G143C	≤ -4.2
U6G C10G A19G U55G C85A G128C G152U	≤ -4.2
C8U C27G C57U G67U G68A G86U A98U	≤ -4.2
U7G C8G G25C G50A U53A G81A G94A U109A C131A	≤ -4.2
U6G G59C A66G A120U	≤ -4.2
C8A A17C U31G U55A C87U	≤ -4.2
U7C C14G A29U G70A C93U A107C C132G G140C G143U	≤ -4.2
C8A G11C A29U C35U A49C A113U C114U	≤ -4.2
C8G A21U A22G G86U U101C C118U	≤ -4.2
U7G A19U G25U C35U C57U C79G U82G C93U C116U C125U A142G	≤ -4.2
C8U G25A A30G U61A G70A	≤ -4.2
U7A U31A A37C U55A G71A C72U G84U	≤ -4.2
C8A C14U A22U A23C C85A U90C A98U U144G	≤ -4.2
U7C A16U A64C G88A U101G U130C	≤ -4.2
U7C A16U A19C G46C U90G C95A A115U	≤ -4.2
U7A U9A A21U U55A G59A C99G C129U A147C	≤ -4.2
U6G C8G G84A A137C U144C	≤ -4.2
U7C U31A G88U C95U	≤ -4.2
U7A U31G G81C G84U C95U A107G G128U A137G	≤ -4.2

Variant	polymerase ribozyme fitness (log ratio)
U7G A30G C32A A39U A60G C96U G126U G140U	-3.86
U7C A19G A24U G34U C51A U77G G84A C99U	≤ -4.2
U6G C27A U33C C85A G88A U134C	≤ -4.2
C8U C27G C93A U139C G141C U145G	≤ -4.2
U6G G86C U135G	≤ -4.2
C8G G143C	-4.08
C8U A39G U53C A66G G80C	≤ -4.2
U7C A64C U82A C103G	≤ -4.2
U7A A22G C72A A122U C131A	≤ -4.2
C8U A19U C51A G83U C87A	≤ -4.2
C8U C14G A22U A28G G128U A138G A150C	≤ -4.2
U6G C87U C131U	0.928
U7G G50A G59A G88C G117U A122G	≤ -4.2
C8A A40C G48C A60G G94C A97U C99A	≤ -4.2
C8U G34C G94A U135G	≤ -4.2
U7A U53G G59C C75G C85A A91U C129A	≤ -4.2
C8G A30U C36U U55A	≤ -4.2
U7G A20U A21U A30C G42C C51U C79G C96A	≤ -4.2
C8G C125A	-3.82
U6G A30U A73U G74C G86U C87A C118U C149A	≤ -4.2
U6G A24U A119U G136U	-3.74

Variant	polymerase ribozyme fitness (log ratio)
C8A U15G C35G U56C G70A G100U	≤ -4.2
U7C G42U C43A G112U	≤ -4.2
C8G A66G	≤ -4.2
C8G C43A C69G G92C	≤ -4.2
C8G C18U U55G G133U A142C	≤ -4.2
C8U G11C C35U C54A C96A C108A C125G	≤ -4.2
U6G U9C A12C U45A C76G A91C C96G	≤ -4.2
U6G A28G A40U G92C	≤ -4.2
C8G G50C U55C G100A A115G U127C	≤ -4.2
C8G G50A U53G U90A C93U	≤ -4.2
U7G C95U	-2.93
U6G U44G C54G C93G C95U G133A	≤ -4.2
C8G A16G A89G G92U U127G	≤ -4.2
C8G C18U A22U G65C C75U C96G	≤ -4.2
U7C G11C G59A G71C C76U G84U A138C	≤ -4.2
C8G A20U C32U C79A C108A C116A A147G C149G	≤ -4.2
C8A C32G A41G G50A C99U A119U A142C C149G	≤ -4.2
C8G C27G C36G A39C C85A	≤ -4.2
U7G A16C G25C C27G C87G A106G U144A	≤ -4.2
U7G A24U C35U G83A C87A C105A A115G A147U	≤ -4.2
U7G C10A A16C G50C A73U C99G	≤ -4.2

Variant	polymerase ribozyme fitness (log ratio)
C8A A24C G25A A30G G50A A60G A115U	≤ -4.2
C8A A26U U53A G59C G86A C118G	≤ -4.2
C8G A19G G48C U56A C79A C105A A106G G140C	≤ -4.2
C8U A22U U56A A73G A121G C123U	-4.16
U6G C14G G25U G74U	≤ -4.2
U7G U13A A17U A20C G50A G83U C116G A122U G128A G152C	≤ -4.2
C8A U45C A49C C69A G80C G88A A89G	≤ -4.2
U6G A28C A40G A52C A147G A150C	≤ -4.2
C8G G11C A16U G58U A64U C85A A89G C93A C95A C116U A142G U145C	≤ -4.2
U6G U78A G84U A91C C108A A121C	≤ -4.2
C8A C79G G94C A107G G143U C149U	≤ -4.2
C8U A12C G59C G68A C85U C118G	≤ -4.2
U6G G71C G86A U109G	≤ -4.2
U6G C8U A16U A29U G48A C72U U139C	≤ -4.2
U7G A19C A41C A91U C96U	≤ -4.2
U7G A19U A23U A52C C69U C99U C118U G128U C132A	≤ -4.2
U7G U9C C75U C87A A98U	≤ -4.2
U7G A41C G46C G50A G84A G117A A119G U139A	≤ -4.2
U7G A17G C85A A91G G140C	≤ -4.2
U7C A41U U56A G68C C76G C87A A97C G133U	≤ -4.2

— the RNAGym collection of RNA variant scans (doi:10.1073/pnas.2313332121)
